We go through 47 molecules from PubChem BioAssay AID1508624 (National Center for Advancing Translational Sciences (NCATS), 2021).

The whole screen tested about 48,000 compounds, of which about 120 (0.25%) were called active. Not shown: some 4% with an inconclusive outcome. Calls come from the whole dose curve; as a rule, active = well fitted activation curve with a large enough effect; inconclusive = small, poorly fitted or top-dose-only effect, or another doubt; inactive = no such curve, though single readings can be large or run the other way. The entries are a selection whose mix differs from that of the whole data set. Where no call is shown, the source filed none.

This test can be described thus: Primary qHTS for Identification of Small Molecule Activators of Huntingtin-Antisense Promoter Activity. Note: nearly all actives have a fitted effect of over 55% in size. Particulars: HEK293 HTT-AS promoter firefly luciferase reporter, 24 h; activity change, positive = activation: at 57.5 µM (top of the series), percent change from vehicle, -100% = no light. Summed up:
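HEK293 luciferase promoter-reporter cells (2,500/well) plated 24 h, then compounds added at up to 57.5 uM final for 24 h at 37 °C. Firefly luminescence by Dual-Glo, normalized to vehicle (0%) and zero RLU (-100%).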
In general terms: Quantitative high-throughput screening tests each substance at several concentrations.
For the molecule `Cc1cc(C)c(S(=O)(=O)Nc2ccc(-c3ccc(N4CCC(C)CC4)nn3)cc2)cc1C`, the activity change, positive = activation is 3.84%.

With `Cc1ccccc1C(=O)Nc1cc2c(cc1N1CCOCC1)n(C)c(=O)n2C`, the activity change, positive = activation worked out at 8.34%.

On to `CCc1nnc(NC(=O)c2nc(S(=O)(=O)Cc3ccc(C)cc3)ncc2Cl)s1`, for which the “activity change, positive = activation” value is inactive: -94.5%.

As to `CCOC(=O)CC(NC(=O)CCc1c(C)nc2c(c(C)nn2-c2ccc(C)c(C)c2)c1C)c1ccc(C)cc1` (configuration not stated), the “activity change, positive = activation” value was inactive: -19.4%.

Turning to `COc1ccc(-c2c3c(=O)n(C)c(=O)n(C)c3c3n2-c2ccccc2NC3c2ccc(OC)cc2)cc1` (configuration not stated), the activity change, positive = activation worked out at 0.495%.

On to `COc1ccc(C2NC(=O)N(C)C3=C2C(=O)N(c2cccc(Cl)c2)C3)cc1` (configuration not stated), for which the “activity change, positive = activation” value was inactive: -27.7%.

Take `CC(=O)c1ccc(N2CCN(c3ccc(NC(=O)c4ccc(F)cc4)cc3C(=O)O)CC2)cc1`: the “activity change, positive = activation” value was inactive: -14.4%.

For `CCc1ccccc1NC(=O)CN(Cc1ccccc1)S(=O)(=O)c1ccc(Br)cc1`, the activity change, positive = activation was -26.3%.

Turning to `O=C(Nc1cc(Cl)cc(Cl)c1)c1ccc(F)c(S(=O)(=O)N2CCc3ccccc32)c1`, the “activity change, positive = activation” value is inactive: -29%.

As for `CC(C)OCCCNC(=O)c1ccc2c(c1)NC(=O)c1ccccc1S2`, the activity change, positive = activation is -36.9%.

For the molecule `COc1ccc(CCN2CCC(Nc3nc4ccccc4n3Cc3ccc(F)cc3)CC2)cc1`, the “activity change, positive = activation” value is inactive: -23.2%.

For `COCc1nc2cccnc2n1C1CCN(S(=O)(=O)N(C)C)CC1`, the activity change, positive = activation was determined as 2.56%.

With `CCOC(=O)c1ccccc1NC(=O)CSc1ncc(CO)n1Cc1ccc(C)cc1`, the activity change, positive = activation was 5.11%.

In the case of `COc1ccccc1Nc1cc(C)nc2nc(-c3ccccc3)nn12`, the “activity change, positive = activation” value was inactive: -9.7%.

With `CCCCOC(=O)c1ccc(NS(=O)(=O)c2c(C)nc3scc(C)n3c2=O)cc1`, the activity change, positive = activation is -38.5%.

Consider `CC(=O)c1cc(-c2ccc(F)cc2)n(CCC(=O)NCc2ccccc2C)c1C`, for which the activity change, positive = activation was -8.85%.

With `Cc1ccc(N2CCN(c3nc4ccc(C)cc4n4nnnc34)CC2)c(C)c1`, the activity change, positive = activation is 5.06%.

On to `COc1cc2c(-c3ccccc3C)nc3c(c(C)nn3-c3ccccc3)c2cc1OC`, for which the activity change, positive = activation is -2.95%.

Turning to `CCc1ccc(NC(=O)CC2C(=O)N(c3cccc(C)c3)C(=O)N2Cc2cccs2)cc1` (configuration not stated), the activity change, positive = activation is -15.1%.

As for `CCN(C(=O)Cn1c(C(=O)OC)cc2oc3ccccc3c21)c1cccc(C)c1`, the activity change, positive = activation was -23.2%.

With `COC(=O)c1ccc(NC(=O)CC2C(=O)N(c3ccc(Cl)cc3)C(=O)N2Cc2cccs2)cc1` (configuration not stated), the activity change, positive = activation was -30.1%.

On to `O=C(NCc1ccccc1)c1cc(-c2cccc(Cl)c2)on1`, for which the activity change, positive = activation is 24.1%.

Consider `CCCc1cc(=O)[nH]c(Nc2cc(C)ccc2OC)n1`, for which the activity change, positive = activation was -20.4%.

Regarding `CCc1ccc(NC(=O)CC2C(=O)N(c3cccc(OC)c3)C(=O)N2Cc2ccc(F)cc2)cc1` (configuration not stated), the activity change, positive = activation is -14.9%.

As to `CCc1ccc(NC(=O)CC2C(=O)N(c3cccc(C)c3)C(=O)N2Cc2ccc(F)cc2)cc1` (configuration not stated), the activity change, positive = activation is -27.1%.

Consider `Cc1ccc(-c2cc(C(=O)Nc3ccc(SC(F)F)cc3)no2)cc1F`, for which the activity change, positive = activation was -11.9%.

Regarding `CCCOc1ccc(NC(=O)CC2C(=O)N(c3ccccc3)C(=O)N2Cc2ccco2)cc1` (configuration not stated), the activity change, positive = activation worked out at 1.05%.

In the case of `Cc1ccc(S(=O)(=O)Nc2cccc(-c3ccc(N4CCC(C)CC4)nn3)c2)s1`, the activity change, positive = activation came to 57.1%.

With `CCc1nn(CC(=O)NC2CC2)c(=O)c2cc3c(OC)cccc3n12`, the activity change, positive = activation is 1.28%.

For `COc1ccc(-c2cc(C(=O)Nc3c(C)n(C)n(-c4ccccc4)c3=O)no2)cc1OC`, the activity change, positive = activation was -4.37%.

As to `COc1cc(NC(=O)CCCOc2cc(=O)n(C)c3ccccc23)cc(OC)c1OC`, the activity change, positive = activation was inactive: -14.2% [at 11.5 µM, percent change from vehicle, -100% = no light].

With `CC(C)(O)CC[C@@H](O)[C@](C)(O)[C@H]1CC[C@@]2(O)C3=CC(=O)[C@@H]4C[C@@H](O)[C@@H](O)C[C@]4(C)[C@@H]3CC[C@]12C`, the “activity change, positive = activation” value was inactive: -37.5%.

Consider `COc1cc(C2C(=O)N(C3CCCCC3)CC(=O)N2C2CCCCC2)ccc1OC(C)C` (configuration not stated), for which the activity change, positive = activation is -4.11%.

Regarding `CCc1ccccc1NC(=O)c1noc2c1CC(C(C)(C)C)CC2` (configuration not stated), the activity change, positive = activation came out at 4.56%.

As for `CCOc1ccc(NC(=O)CC2C(=O)N(c3cccc(C)c3)C(=O)N2Cc2cccs2)cc1` (configuration not stated), the activity change, positive = activation was -8.84%.

In the case of `CCCCN1CC(c2nc3ccccc3n2CCCCOc2cccc(C)c2C)CC1=O` (configuration not stated), the “activity change, positive = activation” value was inactive: -38.1%.

As for `COc1cc(NC(=O)CCc2c(C)nn(-c3ccc(N4CCCCC4)nn3)c2C)cc(OC)c1OC`, the activity change, positive = activation came out at 68.3%.

For `COc1ccc(OC)c(CNc2nc3ccc(C)cc3n3nnnc23)c1`, the activity change, positive = activation is -15.2%.

`COc1cccc(OCCn2c(-c3ccc(Cl)cc3)nc3ccccc3c2=O)c1`: the activity change, positive = activation was determined as 2.39%.

Take `CCOC(=O)c1c(NC(=O)C(C)Oc2ccccc2F)sc(C(C)=O)c1C` (configuration not stated): the activity change, positive = activation was -6.82%.

As to `CCc1ccc(NC(=O)c2ccc(CNS(=O)(=O)c3ccc4c(c3)C(C)(C)C(=O)N4C)cc2)cc1`, the “activity change, positive = activation” value was inactive: -15.7%.

As for `Cn1c(=O)n(C)c2cc(NS(=O)(=O)c3ccc(Cl)cc3)c(NCc3ccccc3)cc21`, the activity change, positive = activation stood at 35.1%.

Consider `Cc1cccc(N2CCN(C(=O)C3CCN(S(=O)(=O)Cc4ccccc4)CC3)CC2)c1C`, for which the activity change, positive = activation was -6.72%.

In the case of `CCCCN(CCCC)S(=O)(=O)c1ccc(NC(=O)c2c(-c3ccccc3)noc2C)cc1`, the activity change, positive = activation was -26.2%.

Turning to `Cc1cc(C)cc(OCCOCCn2c(-c3ccc(Cl)cc3)nc3ccccc3c2=O)c1`, the activity change, positive = activation was determined as 13.8%.

For the molecule `O=C1C(=O)N(C2CCN(C(=O)c3ccc(F)cc3)CC2)CCN1Cc1ccc(F)cc1`, the activity change, positive = activation is -3.14%.

On to `CCc1nnc2c3ccccc3nc(Nc3ccc(F)cc3C)n12`, for which the activity change, positive = activation was -9.92%.
